Hit rate of the full screen: of about 370,000 compounds, about 150 (0.041%) were called active. The inconclusive results got no clear call from the source; some entries with a clear call stand among them for comparison. Calls come from the whole dose curve; as a rule, active = well fitted inhibition curve with a large enough effect; inconclusive = small, poorly fitted or top-dose-only effect; inactive = flat fitted curve, though single readings scatter. No potency is given beside an inconclusive call; the fits are too rough.
biological target: Beta-lactamase (Escherichia coli (strain K12)) (UniProt P00811); experiment: qHTS Inhibitors of AmpC Beta-Lactamase (assay with detergent); conditions: AmpC hydrolysis of nitrocefin, absorbance 480 nm, 0.01% Triton; series mostly up to 114 µM; note: nearly all actives have a fitted effect of over 25% in size
Procedure, shortened: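 AmpC (5.3 nM in the dispensed reagent) in 20 mM phosphate pH 7.0 with 0.01% (detergent screen) or 0.0001% Triton X-100 was preincubated with compounds for 15 min at room temperature. Nitrocefin was then added from an 800 uM solution, and hydrolysis was followed at 480 nm.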
Potency is the fitted concentration of half-maximal effect; tags give direction and shape of the fitted curve.

UniProt P00811, sequence (P00811 whole entry, looked up): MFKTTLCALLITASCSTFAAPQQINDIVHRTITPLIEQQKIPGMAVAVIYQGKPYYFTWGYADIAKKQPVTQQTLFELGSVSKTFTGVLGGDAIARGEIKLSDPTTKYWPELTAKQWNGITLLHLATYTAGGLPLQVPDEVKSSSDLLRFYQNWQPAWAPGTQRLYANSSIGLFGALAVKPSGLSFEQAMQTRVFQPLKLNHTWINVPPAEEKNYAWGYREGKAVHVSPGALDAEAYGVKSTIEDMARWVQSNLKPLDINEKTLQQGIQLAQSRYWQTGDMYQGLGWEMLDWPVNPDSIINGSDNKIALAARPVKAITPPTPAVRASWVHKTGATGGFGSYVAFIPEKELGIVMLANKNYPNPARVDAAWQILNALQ

Row | SMILES | Potency
1 | COc1cccc(NC(=O)CSC(N)=O)c1 | inconclusive [inhibitor, partial curve, poor fit]
2 | CCOC(=O)c1cn(CC)c2ccc(S(=O)(=O)N3CCC(C)CC3)cc2c1=O | inconclusive [inhibitor, full curve, poor fit]
3 | CCCCCNc1nc(-c2ccccc2)nc(-n2ccnc2)n1 | inconclusive [inhibitor, full curve]
4 | O=C(CNS(=O)(=O)c1cccs1)N1CCCC1 | inconclusive [inhibitor, single point]
5 | Cc1ccc(-c2nnn(CC(=O)N(CC(=O)NC3CCCC3)c3cccc(F)c3)n2)o1 | inconclusive [inhibitor, partial curve, poor fit]
6 | CSc1nc2ccc(NC(=O)C3=NNC(=O)CC3)cc2s1 | inactive
7 | CCOc1ccc(-c2nnc(SCC(=O)Nc3cccc(Cl)c3C)o2)cc1 | inactive
8 | CCc1ccc(NC(=O)CCC(=O)N2CCSc3ccccc32)cc1 | inactive
9 | CC1(C2CC2)NC(=O)N(CC(=O)N2CCN(c3ccccc3)CC2)C1=O (stereo not drawn) | inconclusive [inhibitor, full curve, poor fit]
10 | COC(=O)c1c(NC(=O)c2ccco2)sc2c1CCN(C(C)C)C2 | inconclusive [inhibitor, single point]
11 | CCOC(=O)Cn1nc(-c2ccccc2)c2cnc3ccc(CC)cc3c21 | inconclusive [inhibitor, full curve, poor fit]
12 | COc1cccc(NC(=O)CC2C(=O)NCCN2C(=S)Nc2ccc(F)cc2)c1 (stereo not drawn) | inconclusive [inhibitor, full curve, poor fit]
13 | OC(CNCc1ccccn1)c1ccccc1 (stereo not drawn) | inactive
14 | Cc1onc(-c2ccc(Cl)cc2Cl)c1-c1csc(N/N=C/c2ccccc2Cl)n1 | inactive
15 | O=C(NCCc1ccccc1)c1cc(-c2ccc(Cl)c(Cl)c2)on1 | inactive
16 | CC(=C1C(=O)c2ccccc2C1=O)N1CCN(CCN=CC2=C(O)CC(C)(C)CC2=O)CC1 | inconclusive [inhibitor, partial curve]
17 | CN(C)c1ccc(NC(=O)c2ccncc2)c2ccccc12 | inconclusive [inhibitor, full curve]
18 | CC(=O)N(CCc1cccc(C)c1)Cc1cc2cc(C)ccc2[nH]c1=O | inconclusive [inhibitor, full curve, poor fit]
19 | Cc1csc2nc(-c3cccc(NC(=O)c4c(F)cccc4F)c3)cn12 | inactive
20 | Cc1ccc(-c2csc(/C(C#N)=C(\O)CN3CCN(C(=O)c4ccco4)CC3)n2)cc1 | inconclusive [inhibitor, full curve, poor fit]
21 | COc1ccc2nc(-c3ccccc3)cc(C(=O)OCC(=O)N3CCCCC3)c2c1 | inconclusive [inhibitor, full curve, poor fit]
22 | CC(C)(C)NC(=O)CC(CC(=O)O)c1ccccc1 (stereo not drawn) | inconclusive [inhibitor, partial curve, poor fit]

Row | SMILES | Potency
23 | Cc1c(NC(=O)CN2CCN(C(c3ccccc3)c3ccccc3)CC2)c(=O)n(-c2ccccc2)n1C | inconclusive [inhibitor, full curve, poor fit]
24 | O=C(CSc1nnc2c3c4c(sc3ncn12)CCCC4)NCc1ccco1 | inconclusive [inhibitor, partial curve, poor fit]
25 | Cc1cc(NC(=O)c2cccs2)ncc1NC(=O)C(C)C | inactive
26 | CCOc1ccc(C(=O)OCC(=O)Nc2cc(C)on2)cc1OCC | inactive
27 | O=C(c1ccccc1)n1c(=S)nc2ccccn21 | inconclusive [inhibitor, full curve, poor fit]
28 | CCn1c(C)cc(/C=C2\NC(=O)N(CC(=O)Nc3cccc(C)c3)C2=O)c1C | inactive
29 | CCCN(CC(=O)Nc1ccccc1C)C(=O)c1ccc(OCc2c(C)noc2C)cc1 | inconclusive [inhibitor, single point]
30 | CCO/N=C(/c1nonc1N)N1CCN(c2ccc([N+](=O)[O-])cc2)CC1 | inconclusive [inhibitor, full curve, poor fit]
31 | COc1ccc2[nH]cc(C(=O)N3CCCCC3)c(=O)c2c1 | inconclusive [inhibitor, partial curve, poor fit]
32 | COc1ccc(-c2cc(CNS(=O)(=O)c3ccc(NC(C)=O)cc3)on2)cc1 | inconclusive [inhibitor, single point]
33 | COc1cc(CNc2ccc3[nH]c(=O)[nH]c3c2)cc(Cl)c1OCc1ccc(F)cc1 | inactive
34 | CCn1cc([N+](=O)[O-])c(C(=O)N2N=C(c3ccc(O)c(OC)c3)CC2c2ccccc2O)n1 (stereo not drawn) | inconclusive [inhibitor, full curve, poor fit]
35 | COc1cc(/C=C2\SC(=S)N(CC(=O)Nc3ccc(O)cc3)C2=O)cc(OC)c1OC | inactive
36 | O=C(c1cc2nc(-c3ccc(F)cc3)cc(C(F)(F)F)n2n1)N1CCCCC1c1cccnc1 (stereo not drawn) | inconclusive [inhibitor, single point]
37 | COc1ccc2c(c1OC)CN1CCc3cc4c(cc3[C@@H]1[C@@H]2O)OCO4 | inconclusive [inhibitor, partial curve]
38 | Cc1cc(=O)oc2cc(OS(C)(=O)=O)ccc12 | inconclusive [inhibitor, partial curve]
39 | CCc1nc(SCC(=O)NCc2ccco2)c2c(=O)n(C)c(=O)n(C)c2n1 | inconclusive [inhibitor, full curve]
40 | O=C1CC(=O)N(Cc2ccco2)C(=S)N1 | inconclusive [inhibitor, partial curve]
41 | CCc1nnc(NC(=O)C2COc3ccccc3O2)s1 (stereo not drawn) | inactive
42 | CN(C)/C=N/c1ncc(C(=O)c2ccc3ccccc3c2)s1 | inactive
43 | Nc1nc(C23CC4CC(CC(C4)C2)C3)cs1 | inconclusive [inhibitor, full curve, poor fit]
